Source: PubChem BioAssay AID485344 (National Center for Advancing Translational Sciences (NCATS), 2010)
Among all 340,000 compounds or so, about 6,900 (2%) were called active. Rule as the data show it: active = inhibition above about 30%; inactive = below that, where a call was filed. The list shows a part of the results, in another mix than the full data. The source gives no active or inactive call for entries shown without one.

Target: D(2) dopamine receptor (Homo sapiens) (UniProt P14416)
Test: HTS Assay for Allosteric Antagonists of the Human D2 Dopamine Receptor: Primary Screen for Antagonists; also: 0% is about no effect
Settings: HEK293 TREx D2 cells, calcium flux, dopamine EC80; at 10 µM; stronger effect = higher value
Outline: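 Tetracycline-induced HEK293 T-REx cells expressing D2 force-coupled to calcium signalling were dye-loaded, exposed to compound for 180 s, then challenged with an EC80 of dopamine; calcium flux was followed kinetically for a further 180 s.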

UniProt P14416, sequence (P14416 whole entry, looked up): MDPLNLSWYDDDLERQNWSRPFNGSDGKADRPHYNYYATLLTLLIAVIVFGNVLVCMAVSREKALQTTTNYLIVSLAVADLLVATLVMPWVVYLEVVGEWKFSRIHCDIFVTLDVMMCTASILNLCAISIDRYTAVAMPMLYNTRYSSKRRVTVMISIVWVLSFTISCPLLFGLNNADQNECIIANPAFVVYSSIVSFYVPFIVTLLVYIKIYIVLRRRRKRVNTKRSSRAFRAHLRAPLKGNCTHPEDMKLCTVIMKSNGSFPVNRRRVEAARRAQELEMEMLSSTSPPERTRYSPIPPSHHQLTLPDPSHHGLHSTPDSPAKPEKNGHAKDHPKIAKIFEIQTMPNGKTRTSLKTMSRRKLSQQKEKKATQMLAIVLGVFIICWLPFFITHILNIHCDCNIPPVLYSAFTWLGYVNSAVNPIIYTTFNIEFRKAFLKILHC

Going from `COc1ccc(Nc2nn3c(=O)c4cc5c(cc4nc3s2)OCO5)c(OC)c1` to `COc1cc(OC)c(NC(=O)Cn2ncn3c(cc4cc(C)ccc43)c2=O)cc1Cl`, the inhibition falls from -1.48% to -4.11%.

Compared with `Cc1cccc(N(C)S(=O)(=O)c2cc(-c3cnc(C4CC4)o3)ccc2C)c1`, `Cc1ccc(-c2onc(C)c2C)cc1S(=O)(=O)Nc1ccccn1` is lower in inhibition: 25.8% for the first, 1.75% for the second.

First: CCc1c(C)sc2c1CCN(Cc1ccc(C#N)cc1)C2c1ccccc1 (configuration not stated)
Second: N#Cc1ccc(CN2C(=O)c3ccccc3Sc3ccc(C(=O)OCc4ccco4)cc32)cc1
The inhibition of the first is lower: 16.3% for the first, 17.3% for the second.

First: CCOC(=O)c1c(NC(=O)c2cc(-c3ccc(OC)c(OC)c3)on2)sc2c1CCCC2
Second: CCOc1ccc(CNS(=O)(=O)c2c(C(=O)N3CCCCCC3)c(C)n(C)c2C)cc1OC
The inhibition of the first is higher: -8.74% for the first, -9.33% for the second.

Going from `O=C(CN1C(=O)CCSc2ccc(S(=O)(=O)N3CCCC3)cc21)Nc1cccc(F)c1` to `CC(=O)N1CCCc2cc(S(=O)(=O)N3CCC(C(=O)NCc4ccc(N(C)C)cc4)CC3)ccc21`, the inhibition rises from 6.44% to 11.9%.

Going from `CCOC(=O)C(C)NC(=O)c1c2c(nc3ccccc13)C(=O)N(C1CCCCC1)C2` (configuration not stated) to `CCCNC(=O)c1ccc(-n2c(-c3ccccc3)cc3c2CCCCC3)cc1`, the inhibition falls from 7.45% to -18.1%.

Compared with `COc1cc(C(c2c(C)[nH][nH]c2=O)c2c(C)[nH][nH]c2=O)ccc1OC(=O)c1ccccc1OC`, `COc1ccc2c(C)c(CC(=O)NCc3ccccc3Cl)c(=O)oc2c1OC` is lower in inhibition: 10.8% for the first, 5.94% for the second.

Compared with `COC(=O)CC1Oc2ccccc2-n2cc(-c3ccc(F)cc3)nc21` (configuration not stated), `COc1ccc(-c2nc3cc(NC(=O)COc4ccccc4C)ccc3o2)cc1` is lower in inhibition: 11.9% for the first, -16.5% for the second.

First: COc1ccc(CCNC(=O)CN(c2ccccc2)S(=O)(=O)N(C)C)cc1OC
Second: COC(=O)c1sccc1S(=O)(=O)N(CC(=O)Nc1cccc(C)c1C)c1ccc(C)c(C)c1
The inhibition of the first is lower: -21.1% for the first, -4.7% for the second.

Going from `CC(=O)N1CCC(N(CCCOC(C)C)C(=O)Nc2ccc(C)c(C)c2)CC1` to `Cc1ccc(NC(=O)Nc2nnc(N3CCCC3)s2)c(C)c1`, the inhibition falls from 5.17% to -8.29%.

Compared with `Cc1ccc(NC(=O)c2oc3ccc(S(=O)(=O)N4CCC5(CC4)OCCO5)cc3c2C)cc1Cl`, `Cn1c(=NC(=O)c2ccc3c(c2)OCCO3)sc2cc(S(C)(=O)=O)ccc21` is higher in inhibition: -12.7% for the first, -4.4% for the second.

Going from `CCc1cccc(C)c1NC(=O)CSc1nc2ccccc2nc1Cc1ccccc1` to `CCSc1nc2ccccc2c(OCc2ccc(Cl)cc2)c1C(=O)OC`, the inhibition rises from -27.3% to -1.78%.

Going from `CC(C)CN(CCNC(=O)CCN1N=C(c2ccccc2)CCC1=O)CC(C)C` to `COc1ccccc1CNC(=O)C(CC(C)C)NS(=O)(=O)c1ccc2c(c1)oc(=O)n2C` (configuration not stated), the inhibition falls from -9.7% to -21.2%.

Compared with `COc1ccc2c(c1)c1c(c(=O)n(CCc3ccccc3)c(=O)n1Cc1cccc(F)c1)n2C`, `CCN(C(=O)CN(C)S(=O)(=O)c1ccc2c(c1)c(=O)n(C)c(=O)n2C)c1ccc(OC)cc1` is lower in inhibition: 13.4% for the first, -1.89% for the second.

First: CCc1ccccc1NC(=O)c1ccc2c(c1)CCCN2S(C)(=O)=O
Second: CCC(=O)N1CCc2cc(S(=O)(=O)NCCC(=O)NCc3ccccc3Cl)ccc21
The inhibition of the first is lower: -9.27% for the first, -2.32% for the second.

Compared with `COc1ccc(Cn2c(CO)cnc2SCc2ccc(C)cc2)cc1`, `COc1ccc(CNC(=O)CCC(=O)N2CC3CCCN3c3ccccc32)cc1` (configuration not stated) is higher in inhibition: -26.4% for the first, 0.116% for the second.

Going from `CC(C)(C)OC(=O)N1CCC(c2c(C(=O)N3CCN(Cc4ccccc4)CC3)cnn2-c2cccc(Cl)c2)CC1` to `O=C(NCCSCc1ccc(Cl)cc1)C1CCN(S(=O)(=O)Cc2ccccc2)CC1`, the inhibition falls from 3.24% to -7.41%.

First: CN(C)S(=O)(=O)N1CCC(n2c(C(F)(F)F)nc3cccnc32)CC1
Second: CCCCN(C)C(=O)C1CCCN(c2ncnc3onc(-c4ccc(F)cc4)c23)C1 (configuration not stated)
The inhibition of the first is higher: -0.601% for the first, -1.5% for the second.

First: Cc1cccc(NC(=O)CSC2=Nc3ccccc3C3=NC(CCC(=O)NCc4ccco4)C(=O)N23)c1 (configuration not stated)
Second: Cc1ccc(-c2c(C(=O)Nc3ccc(F)c(F)c3)oc(=O)c3ccccc23)cc1
The inhibition of the first is higher: 15.8% for the first, -9.7% for the second.

Compared with `COc1ccccc1CNC(=O)Cn1cc2c(n1)-c1c(oc(C(=O)N3CCOCC3)c1C)CC2`, `CCOc1cccc(CC(=O)Nc2ccc3nc(N4CCCCC4)cc(C)c3c2)c1OCC` is lower in inhibition: -7.99% for the first, -12.8% for the second.

First: CCc1ccc(-c2cn3nc(CC)sc3n2)cc1
Second: COc1ccc(-c2cn3nc(N4CCC(C(=O)Nc5cccc(Cl)c5)CC4)sc3n2)cc1
The inhibition of the first is higher: -2.17% for the first, -5.93% for the second.

Compared with `Cc1ccc(C(C)C)c(OCC(=O)Nc2ccc(S(=O)(=O)Nc3onc(C)c3C)cc2)c1`, `Cc1ccc(Cl)c2sc(NC(=O)CS(=O)(=O)c3ccc(Cl)cc3)nc12` is lower in inhibition: 0.352% for the first, -20.7% for the second.

First: Cc1ccc(C2c3c(oc4ccccc4c3=O)C(=O)N2c2ccc(C)cn2)cc1 (configuration not stated)
Second: Cc1ccc(CNC(=O)Cc2coc3cc(C)cc(C)c23)cc1
The inhibition of the first is lower: -5.33% for the first, 12.8% for the second.

Compared with `Cc1ccccc1-c1noc(C(C)NC(=O)c2ccco2)n1` (configuration not stated), `COC(=O)c1ccc(-n2nnc(-c3nc(-c4ccc5c(c4)OCO5)no3)c2C)cc1` is higher in inhibition: -11.5% for the first, 4.9% for the second.

Going from `CCOC(=O)c1ccc(NC(=O)C2CCCN(c3ccc(Sc4ccc(C)cc4)nn3)C2)cc1` (configuration not stated) to `O=C(NCc1ccccc1)c1ccc(NC(=O)c2nsc3ccccc23)cc1`, the inhibition rises from -28.1% to 18.6%.

Compared with `CC(=O)NCCNc1nc2c(S(=O)(=O)c3ccc(C)c(C)c3)nnn2c2ccc(Cl)cc12`, `CCN(CC)S(=O)(=O)c1ccc2c(c1)c(=O)c(C(=O)NCc1ccccc1)cn2C` is higher in inhibition: -2.08% for the first, 14.2% for the second.

Compared with `Cc1cc(Br)ccc1NC(=O)CCS(=O)(=O)c1cccc2nsnc12`, `Cc1cccc(N2CCN(C(=O)CSCc3ccc(F)cc3)CC2)c1C` is higher in inhibition: -0.719% for the first, 0.0083% for the second.

`COc1cc(CN(CC2CCCO2)C(=O)c2ccc(F)cc2)cc(OC)c1OC` (configuration not stated) showed an inhibition of -4.17%.

For `Clc1ccccc1OCc1nnc(-c2ccccc2Br)o1`, the inhibition was active: 36.2%.
In the case of `CN(C)c1ccc(-c2nnc(SCC3CCCO3)n2C)cc1` (configuration not stated), the inhibition is reported as active: 31.6%.
`C/C=C/C(=O)OCC(=O)Nc1ccccc1Br` was tested, and the inhibition was active: 46.7%.
`CCOC(=O)/C=C/C(=O)Nc1ccc(S(=O)(=O)N2CCCCCC2)cc1` was tested, and the inhibition was active: 31.3%.
In the case of `O=C1C2CCCN2C(c2cccc(Br)c2)N1c1ccc(F)cc1` (configuration not stated), the inhibition is reported as active: 37.7%.
For `COC(=O)/C(=C/c1ccccc1)NC(=O)c1ccco1`, the inhibition was active: 38.6%.
`C=CC(C)(C)c1[nH]cnc1/C=C1\NC(=O)C(C(C)C)NC1=O` (configuration not stated) was tested, and the inhibition was active: 76.1%.
